Reference: PubChem BioAssay AID1986 (Sanford-Burnham Center for Chemical Genomics, 2009)
The other results are listed elsewhere or left out. Shown are side measurements of this screen, not its main read-out; they come without a call.

Test: inhibitors of HIV fusion peptide binding, primary screen, biochemical, uHTS, fluorescence dequenching (AID 1986)
Conditions: cell-free peptide binding, 30 min, measured here: repeat confirmation average inhibition, at 18.6 µM, stronger effect = higher value

SMILES | inhibition [%]
Cc1cc(/C=C2/C(=N)N3C(=NC2=O)SN=C3S(C)(=O)=O)c(C)n1-c1ccccc1 | 50.4
O=C(N/N=C/c1ccc(-c2ccc(S(=O)(=O)Nc3ncccn3)cc2)o1)c1cc2ccccc2cc1O | 79.8
Cc1ccc(NS(=O)(=O)c2ccc(N/N=C/c3ccccc3OCC(=O)O)c([N+](=O)[O-])c2)c(C)c1 | 81.5
Cc1ccc(-n2cccc2/C=C2/C(=N)N3C(=NC2=O)SN=C3S(C)(=O)=O)cc1Cl | 90.3
COc1cc(/C=C2/SC(=S)NC2=O)ccc1OS(=O)(=O)c1ccc(C)cc1 | 75
O=C(Nc1ccccc1Cc1ccccc1)c1ccccc1NS(=O)(=O)c1ccc(Cl)s1 | 70.6
O=C(O)COc1ccccc1/C=N/Nc1ccc(S(=O)(=O)Nc2ccc(Cl)cc2)cc1[N+](=O)[O-] | 81
C/C(=N\Nc1ccc(C(=O)O)cc1)c1ccc2c(c1)Nc1ccccc1S2 | 73.7
CSc1nnc(-c2ccccc2N=Cc2c(C)[nH]n(-c3ccc4ccccc4c3)c2=O)c(=O)[nH]1 | 54.2
O=C(O)CSCC(=O)N(Cc1ccccc1)c1nc(-c2ccccc2)c(-c2ccccc2)s1 | 82.8
CCc1ccc(N=C2NC(=O)/C(=C/c3cc(Br)c(OCC(=O)O)c(OC)c3)S2)cc1 | 69.3
O=C(O)CN1C(=O)/C(=C\c2cn(-c3ccccc3)nc2-c2ccccc2)SC1=S | 55.7
COCCN1C(=O)/C(=C/c2ccc(OCc3ccc(C(=O)O)cc3)c(OC)c2)SC1=Nc1ccccc1 | 66.3
CC(C)(C)c1cc(-c2csc(Nc3ccccc3)[n+]2Cc2ccc(C(=O)O)cc2)cc(C(C)(C)C)c1O | 84.1
O=C(N/N=C/c1cc(Cl)cc([N+](=O)[O-])c1O)NC12CC3CC(CC(C3)C1)C2 | 56.8
O=C(O)c1cc(N2N=C(C(F)(F)F)/C(=C/C=C/c3ccco3)C2=O)ccc1Cl | 66.9
CC(C)CS(=O)(=O)C1=NSC2=NC(=O)/C(=C\c3ccc(OC(=O)c4ccco4)cc3)C(=N)N21 | 70.8
Cc1ccc(NC(=O)COc2cccc(/C=C3\SC(=S)N(CCC(=O)O)C3=O)c2)cc1Cl | 76.3
CCCOc1ccc(C(=O)NNC(=S)NC(=O)c2cc(-c3ccc(Cl)cc3)nc3ccccc23)cc1 | 68.6
COc1ccc(O)c(C(=O)c2cc(SCC(=O)O)c3nc4sc5c(c4c(=O)n3c2)CCCC5)c1 | 70.7
CC(C)(C)c1ccc(S(=O)(=O)/N=C2\C=C(NS(=O)(=O)c3ccccc3)C(=O)c3ccccc32)cc1 | 60.4

SMILES | inhibition [%]
O=C1N/C(=N\S(=O)(=O)c2ccccc2)S/C1=C\c1cc([N+](=O)[O-])ccc1O | 82.9
COc1cc(/C=C2\SC(=Nc3ccccc3)N(CCc3c[nH]c4ccccc34)C2=O)ccc1OC(C)C(=O)O (centres undefined) | 80.9
COc1ccc(C(=O)/C=C/c2cccc(OCc3ccccc3)c2)cc1CSCC(=O)O | 54.9
Cc1ccc(S(=O)(=O)/N=C2/NC(=O)/C(=C/c3cc([N+](=O)[O-])ccc3O)S2)cc1 | 93.6
COc1cccc(-c2coc3c(C)c4oc(=O)c(CCC(=O)O)c(C)c4cc23)c1 | 60.2
Cc1ccc(Cl)cc1N1CCN(C(=O)Cc2c(C(=O)O)[nH]c3ccc(Cl)cc23)CC1 | 60.9
O=C(O)CSc1cc(C(=O)c2ccccc2O)cn2c(=O)c3c4c(sc3nc12)CCCC4 | 61.4
O=C(O)c1ccc(Cl)c(S(=O)(=O)Nc2ccccc2C(=O)Nc2ccc(Cl)cc2)c1 | 54.5
CC(Oc1ccc(Cl)cc1Cl)C(=O)Nc1ccc(S(=O)(=O)Nc2cnc3ccccc3n2)cc1 (centres undefined) | 67.4
CCn1nc([N+](=O)[O-])c(C(C#N)c2nc3cc(C(F)(F)F)ccc3s2)c(Cl)c1=O (centres undefined) | 79.6
COc1cccc(OCCOc2ccc(/C=C3\C(=N)N4N=C(S(C)(=O)=O)SC4=NC3=O)cc2OC)c1 | 79.2
CCOc1cc(/C=C2\SC(=O)N(CC(=O)Nc3ccccc3F)C2=O)cc([N+](=O)[O-])c1O | 67.8
COC(=O)c1sc(-c2ccc(C(C)(C)C)cc2)cc1NC(=O)c1ccccc1C(=O)O | 64.3
CCN1C(=O)/C(=C\c2ccc(-c3ccc([N+](=O)[O-])cc3OC)o2)SC1=Nc1cccc(C(=O)O)c1 | 71.7
Cc1cc(/C=C2\C(=N)N3N=C(S(C)(=O)=O)SC3=NC2=O)c(C)n1Cc1ccccc1 | 53.4
COc1ccc(N=C2S/C(=C\c3ccc(OC(C)C(=O)O)c(OC)c3)C(=O)N2CCc2c[nH]c3ccccc23)cc1 (centres undefined) | 71.5
O=C(O)CCN1C(=O)/C(=C\c2cccc(OCC(=O)Nc3ccc(Cl)cc3)c2)SC1=S | 63.2
O=C1NC(=Nc2ccccc2Cl)S/C1=C\c1cccc([N+](=O)[O-])c1O | 64.5
O=C(O)COc1ccc(/C=C/C(=O)c2ccc(C3CCCCC3)cc2)cc1 | 58.9
CCS(=O)(=O)C1=NN2C(=N)/C(=C\c3ccc(OCCOc4cccc(OC)c4)c(OC)c3)C(=O)N=C2S1 | 68.3
Cc1ccc(-c2nn(-c3ccccc3)cc2/C=C2\SC(=S)N(CC(=O)O)C2=O)cc1 | 72.1

SMILES | inhibition [%]
COc1cccc(NS(=O)(=O)c2ccc3c(c2)C2C=CCC2C(c2ccc(C(=O)O)cc2)N3)c1 (centres undefined) | 68.7
O=C(O)CCN1C(=O)/C(=C\c2ccc(OCc3ccccc3)c(OCc3ccccc3)c2)SC1=S | 92.7
N#Cc1c(-c2ccccc2)nc(SCC(=O)Nc2ccc(OC(F)(F)Cl)cc2)[nH]c1=O | 73.8
Cc1c(CCC(=O)O)c(=O)oc2c(C)c3occ(-c4ccc(Cl)cc4)c3cc12 | 62.5
COc1ccc(N=C2S/C(=C\c3ccc(OCC(=O)O)cc3)C(=O)N2CCc2c[nH]c3ccccc23)cc1 | 54.2
N#Cc1c(-c2cccs2)nc(SCc2ccc(Cl)cc2)[nH]c1=O | 72.9
CCCCCC(=O)Cc1cc(O)cc2c1C(=O)Oc1cc(O)c(C(=O)O)c(CCCCC)c1O2 | 83.3
CC(C)CCOc1ccc(/C=C2\CCn3c2nc2cc(C(=O)O)ccc2c3=O)cc1 | 81.1
COc1cc(/C=C2\C(=N)N3N=C(S(C)(=O)=O)SC3=NC2=O)cc(OC)c1OCCOc1ccccc1C | 72.6
CC1(c2ccccc2)CC(C)(C)N2C(=O)/C(=C3\SC(=S)NC3=O)c3cccc1c32 (centres undefined) | 72.9
O=C(O)C1Nc2ccc(Br)cc2C2C=CCC12 (centres undefined) | 58.1
O=C1NC(=O)/C(=C/c2ccc(-c3cc(C(=O)O)ccc3Cl)o2)S1 | 50.8
O=C(O)CSc1ncnc2c1sc1nc(-c3ccccc3)c3c(c12)CCC3 | 78.9
CCOc1cc(/C=C2\SC(=S)N(C(C(=O)O)c3ccccc3)C2=O)ccc1O (centres undefined) | 69.4
N#Cc1c(-c2ccccc2)nc(SCC(=O)N2c3ccccc3Sc3ccccc32)[nH]c1=O | 84.4
COc1ccc(OC)c(/C=C2\SC(=S)N(NS(=O)(=O)c3ccc(C)cc3)C2=O)c1 | 60.2
Cc1nn(CCc2nn[nH]n2)c2nc(-c3ccc(C4CCCCC4)cc3)cc(C(F)(F)F)c12 | 78.5
O=C(N/N=C/c1cc(Cl)cc([N+](=O)[O-])c1O)c1ccccc1NS(=O)(=O)c1cccs1 | 69
CC1=NN(c2ccccc2)C(=O)/C1=C/c1c(O)n(-c2ccc(F)c(Cl)c2)[nH]c1=O | 79.8
O=S(=O)(Nc1nc(-c2sccc2Cl)cs1)c1cc(Cl)ccc1Cl | 76.7
O=C(O)c1cc(-c2ccc(-c3c(-c4ccc5c(c4)OCO5)noc3-c3ccsc3)cc2)nc2ccccc12 | 73.7

SMILES | inhibition [%]
O=C(Nc1cccc(C(F)(F)F)c1)c1cccc(NS(=O)(=O)c2ccc(O)c(C(=O)O)c2)c1 | 83.6
COc1cc([N+](=O)[O-])cc(/C=C2/SC(=S)N(Cc3ccccc3)C2=O)c1O | 52.3
COc1cc(/C=C2\SC(=O)N(Cc3ccc(Cl)cc3)C2=O)cc([N+](=O)[O-])c1O | 72
COc1ccc(S(=O)(=O)Nc2ccccc2C(=O)Nc2nc(-c3ccc(F)cc3)cs2)cc1OC | 59.3
O=C(O)/C=C/C(=O)Nc1ccc(C2(c3ccc(NC(=O)/C=C/C(=O)O)cc3)c3ccccc3-c3ccccc32)cc1 | 69.4
CC(C)CS(=O)(=O)C1=NN2C(=N)/C(=C\c3ccc(OC(=O)c4ccco4)cc3)C(=O)N=C2S1 | 68.7
CCOc1cc(/C=N/N=C2/NC(=O)C(CC(=O)O)S2)ccc1OCc1ccc(Cl)cc1Cl (centres undefined) | 69
CCC(Sc1nc2ccsc2c(=O)n1Cc1ccc(C(=O)O)cc1)C(=O)Nc1ccc(C)c(Cl)c1 (centres undefined) | 63.7
CCCCCc1c2c(cc(O)c1C(=O)O)OC(=O)c1c(cc(OC)cc1C(=O)CCCC)O2 | 76.2
Cc1ccc2nc(N3C(=O)C(O)=C(C(=O)c4ccco4)C3c3cccc(O)c3)sc2c1 (centres undefined) | 61.4
CCOc1cc(/C=C2/C(=N)N3C(=NC2=O)SN=C3S(=O)(=O)C(C)C)ccc1OC(=O)c1ccco1 | 67.2
C/C(=C/CCC(C)C1CCC2(C)C3CCC4C(C)(C)C(=O)CCC4(C)C3=CCC12C)C(=O)O (centres undefined) | 63.8
O=C(N/N=C/c1cc(Br)c(O)c(Br)c1)c1cc2c(ccc3ccccc32)o1 | 74.1
O=C(CCN1C(=O)/C(=C/c2cccs2)SC1=S)Nc1ccc(C(=O)O)c(O)c1 | 70.2
CC(C)S(=O)(=O)C1=NSC2=NC(=O)/C(=C\c3ccc(-c4ccccc4)o3)C(=N)N21 | 94
O=C(Nc1cc(C(=O)Nc2ccccc2C(=O)O)cc(C(=O)Nc2ccccc2C(=O)O)c1)c1ccccc1 | 82.6
COc1ccc(NS(=O)(=O)c2ccc3c(c2)[C@H]2C=CC[C@H]2[C@@H](c2ccc(C(=O)O)cc2)N3)cc1 | 69.3
CCc1nnc(NS(=O)(=O)c2ccc(NC(=O)/C=C/c3ccccc3Cl)cc2)s1 | 54.5
CCCCCCCCCCCCCCCCn1cc[n+](CC(C)=O)c1 | 91.1
O=C(Nc1ccc(Oc2ccc(Cl)cc2)c(Cl)c1)c1cc(I)cc(I)c1O | 76.8
CSc1nc(SCC(=O)O)c2sc3nc(-c4ccccc4)c4c(c3c2n1)CCC4 | 69.8
